Assay results as given in PubChem BioAssay AID1865 (National Center for Advancing Translational Sciences (NCATS), 2009).
In all, about 280,000 compounds went through this assay and about 540 (0.19%) were called active. The shares of active, inactive and inconclusive entries below differ from those in the screen. Calls come from the whole dose curve; as a rule, active = well fitted activation curve with a large enough effect; inconclusive = small, poorly fitted or top-dose-only effect; inactive = flat fitted curve, though single readings scatter. Potencies beside an inconclusive call are fits to weak or partial responses and may not hold up.

Assay: Quantitative High-Throughput Screen for Regulators of Epigenetic Control; note: nearly all actives have a fitted effect of over 60% in size; for GFP activation: % of control where 0% means no effect
Conditions: murine LDR cells, GFP reporter derepression, 30 h; GFP activation: at 53.9 µM (top of the series)
Outline: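 In this reporter-derepression format, murine cells bearing a silenced integrated CMV-GFP locus incubate with test compound (30 h, 37 C), then are washed and imaged; fluorescent objects of 20–120 um count as induced cells.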
Potency is the fitted concentration of half-maximal effect; tags give direction and shape of the fitted curve.

SMILES | Potency | GFP activation
Cc1ccc(NC(=O)C2CCN(S(=O)(=O)c3c(C)noc3/C=C/c3ccco3)CC2)cc1C | inconclusive: 22.4 µM [activator, single point] | 
COc1ccc(C2/C=C\CN(CC(C)C)CC(=O)N2Cc2cccc(F)c2)cc1 (stereo unspecified) |  | inactive: -0.865%
COc1ccccc1/C=N\Nc1cc(C)nc(-n2nc(C)cc2C)n1 | inconclusive: 28.2 µM [activator, single point] | 
Oc1c(C(Nc2cccc(C(F)(F)F)c2)c2ccncc2)ccc2cccnc12 (stereo unspecified) | inconclusive: 35.5 µM [activator, single point] | 
CCOC(=O)CSc1nc2cc3c(cc2cc1C#N)OCO3 | inconclusive: 35.5 µM [activator, single point] | 
Cc1ccc(-c2noc(CNC(=O)c3ccccc3)n2)cc1 |  | inactive: -0.788%
CCC1CN(C(=O)N2CCC(C(=O)NCc3ccccc3C)CC2)c2ccccc2O1 (stereo unspecified) |  | inactive: 0.833%
CCOc1cc(-c2nc(-c3ccc(-c4ccccc4)nc3OCC)no2)cc(OCC)c1OCC | inconclusive: 17.8 µM [activator, single point] | 
COc1ccc2nc(NC(=O)CS(=O)(=O)Cc3ccccc3)sc2c1 | inconclusive: 11.2 µM [activator, partial curve] | 
COC(=O)c1ccccc1NC(=O)Nc1cc(C)ccn1 | inconclusive: 5.62 µM [activator, single point] | 
COc1ccc(C(=O)c2sc3nc4c(c(C(F)(F)F)c3c2N)CN(C(C)=O)CC4)cc1OC |  | inactive: 4.06%
CC(C)CCN(C(=S)Nc1cccc(F)c1)C(C)c1cccs1 (stereo unspecified) | inconclusive: 6.31 µM [activator, single point] | 
C=CCCc1ccc(C#N)c(SCc2c(C(=O)OCC)c3cc(OC(C)=O)c(Br)cc3n2C)n1 | active: 12.6 µM | 
O=C(Nc1ccc(C(=O)OCc2cc(=O)n3nc(C4CC4)sc3n2)cc1)c1ccccc1 | inconclusive: 14.1 µM [activator, single point] | 
CCN(CC)c1ccc(/C=C(/C#N)C(=O)NCc2ccccc2)o1 | inconclusive: 8.91 µM [activator, partial curve] | 
O=C1CCC/C(=N/NC(=O)c2sc3ccccc3c2Cl)C1 | inconclusive: 35.5 µM [activator, single point] | 
O=C1CC(N2CCCCCC2)C(=O)N1c1ccc2c(c1)OCO2 (stereo unspecified) | inconclusive: 28.2 µM [activator, single point] | 
COCCCNC(=O)c1cccn2c(=O)c3cc4ccccc4cc3nc12 | inconclusive: 11.2 µM [activator, partial curve] | 
Cn1c(/C(C#N)=C/c2ccccc2Br)nc2ccccc21 | inconclusive: 35.5 µM [activator, single point] | 
Cc1nc(SCn2nnc3ccccc3c2=O)nc(C)c1C | inconclusive: 11.2 µM [activator, single point] | 
COC(=O)CCCn1c(C)cc(C(=O)CCl)c1C | inconclusive: 31.6 µM [activator, single point] | 
COc1ccnc(CSC(N)=Nc2ccc(F)cc2)c1 | inconclusive: 31.6 µM [activator, single point] | 

SMILES | Potency | GFP activation
CCCC(=O)NC(c1cccs1)c1cc(Cl)c2cccnc2c1O (stereo unspecified) | inconclusive: 25.1 µM [activator, single point] | 
CCOC(=O)COc1ccc(-c2nnn(CC(=O)Nc3ccccc3)n2)cc1 | inconclusive: 5.62 µM [activator, single point] | 
CCN(CC)S(=O)(=O)c1cccc(-c2nnc(SCC(=O)c3cc(C)n(C)c3C)o2)c1 | inconclusive: 3.16 µM [activator, single point] | 
O=C(CNCCC1=CCCCC1)Nc1ccc(N2CCCCCC2)cc1 | inconclusive: 35.5 µM [activator, single point] | 
NC(=O)c1ncn([C@H]2O[C@@H](CO)[C@@H](O)[C@@H]2O)n1 |  | inactive: 0% [at 16.9 µM]
COc1ccccc1N/C(N)=N/c1nc(C(F)(F)F)cc(=O)[nH]1 | inconclusive: 35.5 µM [activator, single point] | 
CC1=CC(C)(C)Nc2ccc(OC(=O)CN3C(=O)C4CCCCC4C3=O)cc21 (stereo unspecified) | inconclusive: 7.08 µM [activator, single point] | 
CCCCOc1ccc(NC(=O)CSc2cccc3cccnc23)cc1 | inconclusive: 31.6 µM [activator, single point] | 
CC(=O)c1ccc(NC(=O)C2CCN(c3nnc(C)c4c(C)n(-c5ccccc5)nc34)CC2)cc1 | inconclusive: 35.5 µM [activator, single point] | 
CC(=NCCN1CCNCC1)C1=C(O)CC(C)(C)CC1=O | inconclusive: 28.2 µM [activator, single point] | 
CCN(CC)CC1CCN(c2ncc3ncnc(Nc4ccc(F)c(Cl)c4)c3n2)CC1 | inconclusive: 17.8 µM [activator, single point] | 
COc1ccc(CNC(=O)CSc2ncc3c(n2)-c2ccc(Cl)cc2N(Cc2ccccc2)S3(=O)=O)cc1 | active: 15.8 µM | 
CC(/C=N/n1c(C2CCCCC2)n[nH]c1=S)=C\c1ccccc1 |  | inactive: -0.855%
CNc1ccc(Br)cc(C(=O)/C=C/c2cccc(OC)c2)c1=O | inconclusive: 31.6 µM [activator, single point] | 
COc1ccc(NC(=O)c2ccco2)cc1NC(=O)C(C)(C)Oc1ccc(Cl)cc1 | inconclusive: 35.5 µM [activator, single point] | 
N#CC(C(=O)OC1CCCCC1)c1nc2ccccc2nc1N1CCOCC1 (stereo unspecified) | inconclusive: 35.5 µM [activator, single point] | 
COc1ccccc1Nc1sc(C(=O)c2ccc(F)cc2)c(N)c1S(=O)(=O)c1ccc(C)cc1 |  | inactive: -1.69%
CCN(CC)c1cc(C)c2cc(NC(=O)/C=C/c3cc(OC)c(OC)c(OC)c3)ccc2n1 | inconclusive: 22.4 µM [activator, single point] | 
CCCCC(=O)NC(c1ccccc1OC)c1ccc2cccnc2c1O (stereo unspecified) | active: 3.55 µM | 
COc1cccc(N2CC(O)=C(c3nc4ccccc4s3)C2=N)c1 | inconclusive: 22.4 µM [activator, single point] | 
Cc1cccc(NC(=O)Cn2cnc3c(oc4nc5c(cc43)COC(C)(C)C5)c2=O)c1 | inconclusive: 15.8 µM [activator, partial curve] | 
CCOC(=O)c1cnc(-n2nc(C)cc2C)nc1NC1CCCC1 | inconclusive: 35.5 µM [activator, single point] | 

SMILES | Potency | GFP activation
O=C(COC(=O)c1cccc(S(=O)(=O)N2CCN(c3ccccc3)CC2)c1)NCc1ccco1 |  | inactive: 1.2%
Cc1[nH]nc2c1C(c1ccc(F)cc1)C1=C(CC(C)(C)CC1=O)N2 (stereo unspecified) |  | inactive: 0.909%
O=C(CN1C(=O)C(=O)N(Cc2ccccc2)C1=O)Nc1cc(Cl)cc(Cl)c1 |  | inactive: -1.37%
COc1ccc(CCNc2c3ccccc3nc3ccccc23)cc1OC | inconclusive: 31.6 µM [activator, single point] | 
C=C(C)COc1ccc(-c2nc(N)ncc2-c2ccc(OC)cc2)c(O)c1 | inconclusive: 31.6 µM [activator, single point] | 
O=C(N/N=C(\c1ccccc1)c1ccccn1)c1cccc([N+](=O)[O-])c1 | inconclusive: 28.2 µM [activator, single point] | 
O=C(/C=C/c1ccccc1Cl)Nc1nc(-c2cccs2)ns1 |  | inactive: -1.61%
Cc1ccc(S(=O)(=O)CC#CCOC(=O)c2ccc([N+](=O)[O-])cc2)cc1 | inconclusive: 25.1 µM [activator, single point] | 
Cc1cc(NCc2ccccn2)n2ncc(-c3ccc(Cl)cc3)c2n1 | inconclusive: 35.5 µM [activator, single point] | 
COc1cc(C(=O)ON=C2C=C(C)C(=O)C(C)=C2)cc(OC)c1OC | inconclusive: 31.6 µM [activator, single point] | 
COc1ccc(NC(=O)COC(=O)c2cc(OC)c(OC)cc2NC(=O)c2ccco2)cc1OC | inconclusive: 35.5 µM [activator, single point] | 
COc1cc(C(=S)N2CCOCC2)cc(OC)c1OS(=O)(=O)c1ccc(NC(C)=O)cc1 |  | inactive: 0.295%
NC(=O)c1c(NC(=O)c2cc3ccccc3o2)sc2c1CCC2 | inconclusive: 31.6 µM [activator, single point] | 
O=C(CSc1ncccn1)NCc1cccc(Cl)c1 | inconclusive: 0.02 µM [activator, full curve, poor fit] | 
O=C(CCCCCn1c(=O)c2sccc2n(Cc2ccc(Cl)cc2)c1=O)NCc1ccc2c(c1)OCO2 | inconclusive: 31.6 µM [activator, single point] | 
CCOC(=O)COc1ccc2ccccc2c1/C=C/[N+](=O)[O-] | inconclusive: 5.01 µM [activator, single point] | 
COc1ccc(C2CC(c3ccccc3)=NN2S(=O)(=O)c2ccccc2)cc1 (stereo unspecified) | inconclusive: 25.1 µM [activator, single point] | 
C=CCN1C(=O)NC(c2ccccc2)(C(F)(F)F)S/C1=C(\C#N)c1nnc(N2CCOCC2)n1-c1ccccc1 (stereo unspecified) | inconclusive: 35.5 µM [activator, single point] | 
COc1ccc(N2CCN(C(=O)c3cn(C)c(=O)c4c3c3ccccc3n4C)CC2)cc1 |  | inactive: -0.273%
CC(/C=C/c1ccccc1)=N\NC(N)=S | inconclusive: 25.1 µM [activator, single point] | 
Cc1c(Cl)cccc1-c1ccc(/C=C(\C#N)c2nc3ccccc3[nH]2)o1 | inconclusive: 25.1 µM [activator, single point] | 
COc1ccc2nc(Nc3sc4c(c3C(N)=O)CCCC4)sc2c1 | inconclusive: 31.6 µM [activator, single point] | 
